# About 9,900 (2.8%) of roughly 350,000 compounds were called active. The inconclusive results got no clear call from the source; some entries with a clear call stand among them for comparison. Calls follow the shape of the dose curve; as a rule, active = well fitted activation curve with a large enough effect; inconclusive = small, poorly fitted or top-dose-only effect; inactive = no such curve, though single readings can be large or run the other way. Potencies of inconclusive entries are left out as doubtful fits.
# Test: A quantitative high throughput screen for small molecules that induce DNA re-replication in MCF 10a normal breast cells. Also: nearly all actives have a fitted effect of over 50% in size.
# Conditions: MCF 10A DNA re-replication, Hoechst nuclear intensity, 48 h; series mostly up to 46.1 µM
# Potency is read from the fitted curve at half-maximal effect; tags tell the direction and shape of the fitted curve.
row,Structure (SMILES),Potency
1,COc1ccc(Cn2c(=O)n(Cc3ccco3)c(=N)c3c4c(sc32)COC(C)(C)C4)cc1,inactive
2,CCOC(=O)c1c(NC(=S)N2CCN(C)CC2)sc(C)c1-c1ccccc1,active: 25.9 µM
3,Nc1nc(-c2ccccc2)nc2sc3c(c12)CCCC3,"inconclusive [activator, partial curve]"
4,COc1ccc(CCNC(=O)c2ccc3c(c2)N(Cc2ccc(F)cc2)CCS3)cc1OC,"inconclusive [activator, single point]"
5,Cc1ccc(S(=O)(=O)N(Cc2cc3ccccc3[nH]c2=O)CC2CCCO2)cc1 (centres undefined),"inconclusive [activator, single point]"
6,O=C(OCn1ncc(Br)c(Br)c1=O)c1ccccc1Cl,active: 7.94 µM
7,Cc1cc(C)cc(NC(=O)c2cccc3c2C(=O)N(C2CCCCC2)C3)c1,inactive
8,CC(=O)O[C@H]1C(=O)[C@@]2(C)[C@H]([C@H](OC(=O)c3ccccc3)[C@]3(O)C[C@H](OC(=O)[C@H](O)C(NC(=O)c4ccccc4)c4ccccc4)C(C)=C1C3(C)C)[C@]1(OC(C)=O)CO[C@@H]1C[C@@H]2O (some centres undefined),"inconclusive [activator, full curve, poor fit]"
9,CC(C(=O)N(C)C1CCS(=O)(=O)C1)N1C(=O)/C(=C/c2cccs2)SC1=S (centres undefined),"inconclusive [activator, single point]"
10,CC(=O)Nc1sc2c(c1-c1nc3ccccc3s1)CN(C(C)C)CC2,"inconclusive [activator, partial curve, poor fit]"
11,CCc1cccc2c3c([nH]c12)[C@@](CC)(CC(=O)O)OCC3,inactive
12,O=C(CN1CCCN(S(=O)(=O)c2ccc(Br)s2)CC1)Nc1ccc(Cl)cc1,"inconclusive [activator, partial curve]"
13,S=C(Nc1cccc(Cl)c1)Nc1ccc2cn[nH]c2c1,inactive
14,CCn1cc(S(=O)(=O)NCCc2ccc(OC)c(OC)c2)cn1,inactive
15,O=C(CSCc1cnn(-c2ccccc2)c1-n1cccc1)NCC1CCCO1 (centres undefined),inactive
16,CC(=O)N=c1c(C#N)cc2c(=O)n3ccccc3nc2n1Cc1ccccc1,active: 8.2 µM
17,O=C(O)CSc1cc(NS(=O)(=O)c2ccc(Cl)cc2)c2ccccc2c1O,active: 23.1 µM
18,O=C1C2=C(NC(=S)NC2c2ccc(Cl)cc2)NC(c2ccc(Cl)cc2)N1c1ccc(Cl)cc1 (centres undefined),"inconclusive [activator, single point]"
19,CCN(Cc1ccc2c(c1)OCO2)C(=O)CSc1nc(C)nc2sc(C)c(C)c12,"inconclusive [activator, single point]"
20,CCCCCCCNC(=O)C1(CC2CC(c3ccccc3)=NO2)CCNCC1 (centres undefined),"inconclusive [activator, single point]"
21,Cc1cccc(C2=NN(c3ccc(Br)cc3)[C@@H](C(=O)N3CCOC3=O)[C@@H]2c2ccc(Cl)cc2)c1,"inconclusive [activator, partial curve, poor fit]"
22,CCc1ccc(NC(=O)CN(c2cccc(C)c2)S(C)(=O)=O)cc1,inactive
23,Cc1ccc(S(=O)(=O)NCC(=O)N2CCOCCOCCOCCOCC2)cc1,"inconclusive [activator, partial curve, poor fit]"

row,Structure (SMILES),Potency
1,COc1ccc2[nH]cc(C(=O)C(=O)N3CCCCC3)c2c1,"inconclusive [activator, full curve]"
2,CCOC(=O)c1cc2c(s1)-c1ccccc1CC2,"inconclusive [activator, partial curve, poor fit]"
3,Cc1nn(-c2cccc(Cl)c2)c2nc(C(F)(F)F)[nH]c(=O)c12,"inconclusive [activator, partial curve, poor fit]"
4,O=C(c1sc(N2CCOCC2)nc1-c1ccccc1)N1CCCCC1,inactive
5,Cc1ccccc1NC(=O)CSc1ccncc1,"inconclusive [activator, single point]"
6,CC(Sc1nc(NCc2ccccc2)nc(N(C)C)n1)C(=O)Nc1ccccc1 (centres undefined),"inconclusive [activator, partial curve, poor fit]"
7,Cc1occc1-c1nnc(SCC(=O)Nc2nc(C(C)(C)C)cs2)o1,active: 14.6 µM
8,CCN(c1ccccc1)S(=O)(=O)c1ccc(C(=O)Nc2ccc(C)cn2)cc1,"inconclusive [activator, single point]"
9,C=CCN1C(=O)/C(=C\c2cccs2)C(C(=O)OC)=C1C,"inconclusive [activator, single point]"
10,Cc1ccccc1Cn1cccc1/C=C1/C(=N)N2C=CSC2=NC1=O,"inconclusive [activator, single point]"
11,Cc1cc(/C=C(\C#N)C(=O)NCc2ccco2)c(C)[nH]1,inactive
12,CC(C)CCN1C(N(C)C)=NC[C@@H]1C,inactive
13,O=C(NC(=S)NC1CCS(=O)(=O)C1)c1ccccc1F (centres undefined),"inconclusive [activator, partial curve, poor fit]"
14,Cc1ccc2c(CC(=O)NCCc3ccc(S(N)(=O)=O)cc3)coc2c1,inactive
15,COc1ccccc1-c1cnn2c(NCCc3ccccc3)cc(C)nc12,"inconclusive [activator, single point]"
16,COc1ccc(CCNC(=O)c2cc3c(=O)n4ccccc4nc3n(CCN3CCOCC3)c2=N)cc1,active: 20.6 µM
17,O=C(Nc1nccs1)c1ccc(COc2ccc(F)cc2)o1,active: 2.91 µM
18,O=C(c1ccccc1)N1N=C(C(F)(F)F)CC1(O)c1ccccc1O (centres undefined),"inconclusive [activator, partial curve, poor fit]"
19,Cc1ccc(-c2cc(C(=O)N/N=C/c3ccoc3)c3ccccc3n2)cc1,"inconclusive [activator, single point]"
20,O=C(CN(C(=O)c1csnn1)c1cccc(Cl)c1)NC1CCCCC1,inactive
21,CC(C)(C)NC(=O)C(c1ccccc1)N(C(=O)C1CSC(=O)C1)c1ccccc1 (centres undefined),"inconclusive [activator, single point]"
22,O=[N+]([O-])c1ccccc1/C=N/NC1=NCCCCC1,"inconclusive [activator, full curve, poor fit]"
23,O=C(Nc1ccc2oc(-c3ccncc3)nc2c1)c1ccc([N+](=O)[O-])o1,active: 4.11 µM

row,Structure (SMILES),Potency
1,Cc1ccc(S(=O)(=O)c2c(C)nn(C(C)(C)C)c2OC(=O)c2cccs2)cc1,active: 18.4 µM
2,CC1CCN(C(=S)c2ccc([N+](=O)[O-])cc2)CC1,"inconclusive [activator, partial curve, poor fit]"
3,COc1ccc(-c2nc(-c3ccncc3)no2)cc1,"inconclusive [activator, single point]"
4,COc1cc(CN2CCCC(N3CCN(c4ccccc4C)CC3)C2)ccc1O (centres undefined),"inconclusive [activator, partial curve, poor fit]"
5,Cc1nc2ccccc2c2nc3ccccc3n12,"inconclusive [activator, single point]"
6,COc1ccc(Nc2nc(NCCO)nc(N3CCCC3)n2)cc1,inactive
7,O=C(c1ccccc1)C(C(=O)N1CCc2ccccc2C1)n1ccccc1=O (centres undefined),"inconclusive [activator, single point]"
8,C/C(=N\NC(=O)c1cc(-c2ccncc2)nc2ccccc12)c1ccc(N2CCOCC2)cc1,active: 5.8 µM
9,Cc1c(C(=O)Nc2ccccc2)sc2nc3n(c(=O)c12)CCCCC3,"inconclusive [activator, full curve, poor fit]"
10,CC(C)CCn1c(SCCc2ccccc2)nc2c1c(=O)[nH]c(=O)n2C,"inconclusive [activator, single point]"
11,COc1ccc(C(=O)NCc2cc(C)nc3ccccc23)cc1,"inconclusive [activator, partial curve, poor fit]"
12,Cc1ccc(CNC(=O)CN(c2ccc(C)cc2)S(=O)(=O)c2c(C)nn(C)c2C)cc1,"inconclusive [activator, partial curve]"
13,CCC1=Nc2cc(C(=O)NCc3cccnc3)ccc2Sc2ccc(C)cc21,active: 2.31 µM
14,Cc1ccc2c(Cl)c(C(=O)Nc3nn[nH]n3)sc2c1,"inconclusive [activator, partial curve, poor fit]"
15,CCOc1ncccc1C(=O)OCC(=O)Nc1cccc(C(C)=O)c1,inactive
16,CCN(C(=O)CSc1nc2n[nH]c(C)c2c(=N)n1-c1ccc(Cl)c(C)c1)c1cccc(C)c1,active: 8.2 µM
17,CCNc1ccc2c(Cl)cc(=O)oc2c1,"inconclusive [activator, single point]"
18,O=c1oc(-c2ccccc2)c(-c2ccccc2)c2ccccc12,"inconclusive [activator, partial curve, poor fit]"
19,O=c1[nH]c(=O)n(CCO)c2nnn(Cc3ccccc3)c12,"inconclusive [activator, partial curve]"
20,Cc1cccc(-c2noc(CN(C)C(=O)c3ccoc3C)n2)c1,inactive
21,Cc1sc(NC(=O)CN2CCOCC2)nc1-c1ccc2c(c1)CCN2S(=O)(=O)c1ccccc1,"inconclusive [activator, full curve, poor fit]"
22,CCCCCCn1c(CN2CCCCC2CC)nc2c1c(=O)n(C)c(=O)n2C (centres undefined),inactive
23,COc1cccc(C(=O)C[n+]2cccc3cc(OC)ccc32)c1,inactive
